# Source: publication PMC4336329 (PLoS ONE, 2015)
# Among all 310,000 compounds or so, about 14,000 (4.5%) showed an effect of 50% or more. Effects have a minus sign here. Some of the results follow.
# Molecular target: human ether-à-go-go-related gene (hERG) potassium channel (human, UniProt Q12809)
# Assay: primary screen, population patch clamp on CHO cells stably expressing hERG
# 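Further: peak tail current of the secondary pulse compared with the same well before compound.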
# human ether-à-go-go-related gene (hERG) potassium channel, sequence (Q12809 whole entry, looked up): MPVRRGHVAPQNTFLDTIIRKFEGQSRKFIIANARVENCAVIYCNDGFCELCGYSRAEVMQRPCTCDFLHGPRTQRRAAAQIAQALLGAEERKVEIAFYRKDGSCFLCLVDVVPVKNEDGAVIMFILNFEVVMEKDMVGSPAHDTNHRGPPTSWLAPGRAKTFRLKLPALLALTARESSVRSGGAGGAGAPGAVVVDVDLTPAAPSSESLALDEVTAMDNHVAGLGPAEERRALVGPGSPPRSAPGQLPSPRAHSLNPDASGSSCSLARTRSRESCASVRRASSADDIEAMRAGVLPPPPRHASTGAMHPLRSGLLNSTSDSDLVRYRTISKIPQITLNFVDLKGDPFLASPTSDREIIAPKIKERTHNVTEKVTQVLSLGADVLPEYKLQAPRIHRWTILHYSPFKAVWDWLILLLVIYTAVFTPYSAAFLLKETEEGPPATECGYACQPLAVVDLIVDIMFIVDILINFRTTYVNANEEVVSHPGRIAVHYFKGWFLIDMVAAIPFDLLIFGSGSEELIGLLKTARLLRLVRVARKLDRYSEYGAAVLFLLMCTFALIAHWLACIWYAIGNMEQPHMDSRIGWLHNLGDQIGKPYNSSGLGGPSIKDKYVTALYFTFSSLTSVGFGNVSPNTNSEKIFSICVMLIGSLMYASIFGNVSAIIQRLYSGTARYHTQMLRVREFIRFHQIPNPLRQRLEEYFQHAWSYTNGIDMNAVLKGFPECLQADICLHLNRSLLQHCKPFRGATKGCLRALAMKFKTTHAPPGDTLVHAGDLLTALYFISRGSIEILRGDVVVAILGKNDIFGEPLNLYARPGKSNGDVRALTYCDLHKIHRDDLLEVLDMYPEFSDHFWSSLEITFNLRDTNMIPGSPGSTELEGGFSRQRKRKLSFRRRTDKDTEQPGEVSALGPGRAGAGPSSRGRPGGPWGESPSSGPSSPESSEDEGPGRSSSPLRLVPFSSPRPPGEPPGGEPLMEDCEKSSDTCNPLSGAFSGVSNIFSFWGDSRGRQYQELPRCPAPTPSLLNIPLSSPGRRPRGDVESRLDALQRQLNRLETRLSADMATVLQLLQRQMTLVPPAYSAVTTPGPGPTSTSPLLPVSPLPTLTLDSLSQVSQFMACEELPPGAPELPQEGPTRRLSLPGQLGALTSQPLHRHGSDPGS
row,Compound,"hERG current change (%, negative = inhibition) at 10uM [%]"
1,CCOC(=O)c1c(C)nc2sc3c(=O)n(-c4ccc(C(C)=O)cc4)nnc3c2c1-c1ccc(OC)cc1,17.4
2,O=C(CSc1n[nH]c(-c2cccs2)n1)N1CCCc2ccccc21,-16.6
3,CCn1c(C)c(C(C)=O)c(N2CCCC2)nc1=S,-6.59
4,Cc1occc1-c1nnc(SCC(=O)N2CCCCC2C)o1 (stereo not shown),-12.1
5,CC1(C)CC(=O)C2=C(C1)Nc1cc3c(cc1C2c1ccc2c(c1)OCO2)OCO3 (stereo not shown),-13.2
6,O=C(O)Cc1ccc(C(=O)c2ccccc2F)s1,10.3
7,NC1=NC(=O)/C(=C\c2cccnc2)S1,-2.29
8,COc1ccc(CC(=O)NNC(=O)c2cccnc2)cc1OC,14.5
9,CC1(C)C(=O)Nc2ccccc2N1C(=O)COC(=O)CSc1ccc(F)cc1,-2.24
10,COc1cc(/C=N/NC(=O)C2(O)c3ccccc3-c3ccccc32)ccc1O,-4.46
11,CC(=O)N1c2ccccc2N(Cc2ccc(C)cc2C)C(=O)C1(C)C,-12.4
12,CSc1nc2nc(-c3cccs3)cc(C(F)(F)F)c2c(=O)[nH]1,12.9
13,Cc1nc(SCC(=O)NCCc2ccccc2)c2oc3ccccc3c2n1,0.202
14,COc1ccc(C2C(C(=O)Nc3cc(C)on3)c3ccccc3C(=O)N2C)cc1 (stereo not shown),5.67
15,O=C(Nc1ccccc1C(=O)N1CCOCC1)C1COc2ccccc2O1 (stereo not shown),-3.33
16,COc1ccc(S(=O)(=O)CCC(=O)O)cc1,15
17,O[C@H]1c2ccccc2[C@H](Cc2cncs2)[C@@H]1Br,0.746
18,Cn1cccc1/C=C1\SC(=S)N(Nc2ccccc2)C1=O,9.36
19,COc1cc(N2Cc3ccccc3C2)ccc1C=O,-3.61
20,COc1cccc(NC(=O)CNc2cc(S(=O)(=O)N3CCOCC3)ccc2N2CCCC2)c1,-5.36
21,COc1ccccc1CNC(=O)CC12CC3CC(CC(Br)(C3)C1)C2,14
22,CCCCNCCOCCOc1ccc(C)cc1[N+](=O)[O-].O=C(O)C(=O)O,-44.7
23,COc1cc(NC(=O)C2CCCC2)c(OC)cc1Cl,-9.08
24,Cc1ccc(N=Cc2c(O)n(-c3nccs3)c(=O)c3ccccc23)c(C)c1,-5.35
25,Cc1ccc(SCCNC(=O)/C=C/c2ccccc2Cl)cc1,7.83
26,O=C(Nc1ccc(Nc2ccccc2)cc1)C(Cl)(Cl)Cl,-4.13
27,O=C1CN(C(=O)N[C@@H](Cc2ccccc2)C(=O)N[C@@H](Cc2ccccc2)C(=O)O)c2ccccc2N1,3.79
28,CCC(=O)N1CCc2cc(S(=O)(=O)CCC(=O)NCc3cccc(OC)c3)ccc21,13.8

row,Compound,"hERG current change (%, negative = inhibition) at 10uM [%]"
1,Cc1ccn2c(NC(=O)c3ccccc3)c(-c3ccccc3)nc2c1,-14.8
2,O=C(CCc1nnc(COc2ccccc2)o1)NC1(c2ccccc2)CC1,-5.68
3,CCN1C(=O)/C(=C/C=C2\C=CN(CC)c3ccccc32)SC1=S,-4.57
4,O=C(Cn1nnc(-c2ccccc2Cl)n1)NCc1ccc2c(c1)OCO2,5.89
5,COc1ccccc1C(=O)Nc1nc2nc(-c3ccccc3)cc(=O)n2[nH]1,13.3
6,Cn1c(SCC(=O)Nc2ccccc2F)nnc1C1CCCCC1,0.775
7,COC(=O)C1CSc2[nH]c(=O)sc2C1c1ccccc1 (stereo not shown),-16.3
8,CC(=O)c1sc2nc(CSc3nnnn3-c3ccccc3)[nH]c(=O)c2c1C,-4.04
9,COCCN(C(=O)CSc1nc2ccc(C)cc2[nH]1)c1c(N)n(Cc2ccccc2)c(=O)[nH]c1=O,16.8
10,Cc1cc(C)nc(NS(=O)(=O)c2ccc(NC(=S)NC(=O)CC(C)C)cc2)n1,-8.57
11,CCn1c2ccccc2c2cc(NC(=O)c3ccc(=O)oc3)ccc21,3.63
12,Cc1c(Cl)cccc1N(CC(=O)N1CCCCCC1)S(C)(=O)=O,-5.82
13,O=C(COC(=O)c1ccc(S(=O)(=O)NCc2ccco2)cc1)Nc1ccc(Cl)cn1,18.8
14,Cc1cc(C(=O)Cn2nc(C(=O)O)c3ccccc3c2=O)c(C)n1-c1ccc(F)cc1,-0.742
15,Cc1ccc(NS(=O)(=O)c2cccc(C(=O)NNC(=O)c3cccn3C)c2)c(C)c1,-8.9
16,CCN(C(=O)C1CCCN(c2ncnc3c2nc2n3CCCCC2)C1)c1cccc(Cl)c1 (stereo not shown),-62.5
17,Cc1cc(-c2ccccc2)c2c(=O)[nH][nH]c2n1,13.2
18,O=C(O)CCCC(=O)Nc1ccc(Cl)c(Cl)c1,20.9
19,COc1ccc(Cn2nnc(C(=O)Nc3ccc4c(c3)OCCO4)c2N)cc1Br,-0.0485
20,CC1(C)Cc2nc3sc(C(=O)NCCO)c(N)c3cc2CO1,-34.2
21,CCOC(=O)C(C)Oc1cccc2c(=O)n(CC(=O)NCc3ccccc3)ccc12 (stereo not shown),4.63
22,Cc1ccccc1Cn1nc(C)c(NC(=O)c2cc(-c3cccs3)on2)c1C,-1.72
23,CCOC(=O)c1c(NC(=O)CC(C)C)sc(C(C)=O)c1C,2.17
24,COc1ccc(Nc2nc(-c3ccccc3)c3ccccc3n2)cc1,-5.22
25,CCOC(=O)C(NCc1ccccc1OC)(NC(C)=O)C(F)(F)F (stereo not shown),23
26,O=C(C1CCCN(S(=O)(=O)c2ccc(F)cc2)C1)N(Cc1cccs1)C1CC1 (stereo not shown),-78.2
27,CC(=O)c1ccc(N=Cc2c(O)n(-c3cc(Cl)ccc3N3CCOCC3)c(=O)c3ccccc23)cc1,5.32
